Data on 48 compounds can be found in PubChem BioAssay AID1508642 (National Center for Advancing Translational Sciences (NCATS), 2021).

SMILES strings stand for the structures. Hit rate of the full screen: of about 43,000 compounds, about 200 (0.47%) were called active. About 12% were inconclusive and are not listed. The call rests on the fitted dose curve; in most records, active means well fitted cell-killing curve with a large enough effect; inconclusive means small, poorly fitted or top-dose-only effect, or effect the other way; inactive means flat fitted curve, though single readings scatter. The list shows a part of the results.
On the % scale 0 is the no-effect control and ±100 the full control effect.

This assay in a line: Cell viability qHTS assay in S16 Pmp22-F2sN cells. Further: nearly all actives have a fitted effect of over 65% in size. The settings on record: S16 Pmp22-F2sN Schwann cells (luciferase reporters placed in the Pmp22 gene) viability, CellTiter-Glo, 24 h; series mostly up to 57.5 µM; activity change, negative = cytotoxicity: at the top concentration. The essentials:
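Rat S16 Schwann reporter line, 24 h treatment with library compounds delivered at 23 nL per well. Cell viability by CellTiter-Glo luminescence.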
Background: Quantitative high-throughput screening tests each substance at several concentrations.
Consider `CCOC(=O)c1c(C)[nH]c(C)c1S(=O)(=O)NCC(=O)Nc1cc(C)ccc1OC`, for which the “activity change, negative = cytotoxicity” value is inactive: -1.88%.
With `O=C(NCCc1csc2nc(-c3ccccc3F)nn12)c1ccco1` the figure was inactive: 10.3%.
With `O=C(NC(=O)c1ccc(F)cc1)Nc1ccc(-c2cc(C(F)(F)F)nn2-c2ccccc2)cc1` the figure was inactive: -2.41%.
With `Cc1oc2c(c(C)cc3oc(=O)c(CC(=O)NCCc4ccccc4)c(C)c32)c1C` the figure was inactive: -2.63%.
Regarding `CN1C(C(=O)c2ccccc2)=C(OC(=O)c2ccc(Br)cc2)c2ccccc2S1(=O)=O`, the “activity change, negative = cytotoxicity” value was inactive: -13.4%.
With `Cc1ccc(-c2c(CN3CCN(c4cccc(C(F)(F)F)c4)CC3)csc2C)cc1` the figure was inactive: 20.9%; with `COc1cccc(C2C=C(c3ccc(C)c(C)c3)Nc3nnnn32)c1OC` (stereo not drawn), inactive: -26.8%; with `COc1ccc(N2CCN(S(=O)(=O)CCNC(=O)C(c3ccccc3)c3ccccc3)CC2)cc1`, inactive: -4.43%.
With `CCN1CCN(CCCNC(=O)c2cnn(-c3ccccc3)c2C2CCN(C(=O)OC(C)(C)C)CC2)CC1`, the “activity change, negative = cytotoxicity” value was inactive: -1.1%.
With `CCOC(=O)c1ccc(Nc2nc3ccccc3nc2NS(=O)(=O)c2ccc(Cl)cc2)cc1` the figure was inactive: 14.7%; with `Cc1cccc(NC(=O)c2c(C)oc3ncn(CC(C)C)c(=O)c23)n1`, inactive: -22.2%.
On to `CC(=O)N1CCc2cc(S(=O)(=O)CCC(=O)N3CCN(c4cccc(C)c4C)CC3)ccc21`, for which the “activity change, negative = cytotoxicity” value is inactive: 5.71%.
With `Cc1sc2ncn(CC(=O)N(C)c3ccc(Br)cc3)c(=O)c2c1S(=O)(=O)N1CCC(C)CC1` the figure was inactive: 9.84%; with `Cc1nc2c(C(=O)NCc3ccccc3)c[nH]n2c(=O)c1Cc1ccccc1Cl`, inactive: -13.1%; with `CCOc1ccc(-c2nnc(Nc3ccc(S(N)(=O)=O)cc3)c3ccccc23)cc1`, inactive: 8.16%.
On to `Cc1cc(C)c(NC(=O)CSc2nc(=O)[nH]c3c2CCCC3)c(C)c1`, for which the “activity change, negative = cytotoxicity” value was inactive: -14.8%.
With `CC(C)(C)c1ccc(OCC(=O)N2CCC(c3nc4ccccc4s3)CC2)cc1` the figure was inactive: 8.55%; with `CCCOC1(C(F)(F)F)NC(=O)N(c2ccc(Cl)cc2)C1=O` (stereo not drawn), inactive: 0.764%.
As to `O=C(NCCc1ccccc1)c1cc(-c2ccc(Cl)cc2)on1`, the “activity change, negative = cytotoxicity” value is inactive: -1.13%.
With `COc1ccc(NC(=O)c2noc3c2CCCC3)cc1Cl` the figure was inactive: 0.212%.
With `COC(=O)c1c(NC(=O)CCCOc2cccc(C)c2)sc2c1C(C(=O)OC)CC2` (stereo not drawn) the figure was inactive: 1.25%; with `CCN(CC)C(=O)Cn1c(=O)n(Cc2ccc(C(=O)NCCc3ccc(OC)c(OC)c3)cc2)c(=O)c2ccccc21`, inactive: 14.6%; with `CCOC(=O)C1=C(C)N=C2SCCC(=O)N2C1c1ccc(OCc2ccccc2)cc1` (stereo not drawn), inactive: 5.12%.
With `Cc1ccc(-n2ncc(C(=O)NCc3ccco3)c2C2CCN(C(=O)OC(C)(C)C)CC2)c(C)c1` the figure was inactive: -5.86%; with `CC(=O)c1ccc(N2C(=O)N(CC(=O)c3ccc(F)cc3)c3ccccc3S2(=O)=O)cc1`, inactive: 11.9%.
Consider `Cc1ccc(-n2ncc3c(NC4CCCCCC4)ncnc32)cc1Cl`, for which the “activity change, negative = cytotoxicity” value is inactive: -5.67%.
With `Cc1cc(C)cc(NS(=O)(=O)c2cc3c(cc2C)NC(=O)CO3)c1` the figure was inactive: -18%; with `O=C(Nc1ccc(OC(F)(F)F)cc1)c1cc2ccccn2n1`, inactive: -2.25%.
With `O=c1nc2n(-c3ccccc3F)c3ccccc3cc-2c(=O)[nH]1` the figure was inactive: -7.86%.
With `COc1cc(OC)c(Nc2nc3ccc(C(=O)c4ccccc4)cc3n3c(C)nnc23)cc1Cl` the figure was inactive: 1.17%; with `CCCCn1cc2c(c1-c1ccc(Cl)cc1)c(=O)n(C)c(=O)n2C`, inactive: -1.98%.
As to `CCCN(C(=O)Cn1cnc2onc(-c3ccc(F)cc3)c2c1=O)c1cccc(Cl)c1`, the “activity change, negative = cytotoxicity” value is inactive: 0.41%.
With `CCOc1ccc(CCNS(=O)(=O)c2cc(Br)cc3c2N(C(C)=O)CC3)cc1OCC` the figure was inactive: 15%; with `Cc1cc(C)n(-c2nc3ccccc3nc2Nc2cccc(C)c2C)n1`, inactive: 0.359%.
With `CCC(Sc1nc2ccccc2c(=O)n1CCc1ccc(OC)c(OC)c1)C(=O)N(CC)CC` (stereo not drawn) the figure was inactive: -14.5%.
With `CCOC(=O)c1c(NC(=O)c2ccc(S(=O)(=O)N(CC(C)C)CC(C)C)cc2)sc2c1CCN(C(=O)OCC)C2` the figure was inactive: 0.339%; with `CCC(=O)N(CCC(c1ccccc1)c1ccc2c(c1)OCO2)Cc1ccc(OC(C)C)cc1` (stereo not drawn), inactive: -28.6%.
For `COc1ccc(NC(=O)CSc2nnc(-c3nonc3NC(C)=O)n2-c2ccccc2)cc1`, the “activity change, negative = cytotoxicity” value is inactive: 9.86%.
For `COc1ccc(Cl)cc1NC(=O)c1sc2nc3n(c(=O)c2c1C)CCC3`, the “activity change, negative = cytotoxicity” value is inactive: 4.35%.
With `CCN(C(=O)c1cnc2ccc(C)cn2c1=O)c1ccccc1` the figure was inactive: 8.38%; with `COc1ccc(Cl)cc1NC(=O)c1nn(-c2ccc(C)cc2)c(=O)n(C)c1=O`, inactive: 2.02%; with `Cc1cccc(CNC(=O)CS(=O)(=O)c2cccc3nsnc23)c1`, inactive: 0.747%.
Consider `COc1cc(NC(=O)Cn2cnc(S(=O)(=O)N3CCCC3)c2)cc(OC)c1OC`, for which the “activity change, negative = cytotoxicity” value is inactive: 9.13%.
With `Clc1ccc(-c2noc3ncnc(NCCc4ccccc4)c23)cc1` the figure was inactive: -1.99%; with `CCc1ccc(NC(=O)C2CCN(c3nn4c(=O)cc(C)nc4s3)CC2)cc1`, inactive: 2.62%.
With `CCc1ccc(CNC(=O)C2CCN(c3nn4cc(-c5ccc(F)cc5)nc4s3)CC2)cc1` the figure was inactive: 2.4%; with `CC(=O)CSc1nnc2[nH]c(=O)cc(N)n12`, inactive: 6.19%.
For `CCOc1cc2[nH]c(=O)n(Cc3ccc(C(=O)N4CCN(c5cccc(Cl)c5)CC4)cc3)c(=O)c2cc1OCC`, the “activity change, negative = cytotoxicity” value was inactive: -3.3%.
